Experimental data published in publication PMC4336329 (PLoS ONE, 2015).
Out of some 310,000 compounds screened, about 14,000 (4.5%) showed an effect of 50% or more. Effects have a minus sign here. The list shows a part of the results.

What follows are molecules tested against human ether-à-go-go-related gene (hERG) potassium channel (human, UniProt Q12809) (assay: primary screen, population patch clamp on CHO cells stably expressing hERG).
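Also: peak tail current of the secondary pulse compared with the same well before compound.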

Sequence of human ether-à-go-go-related gene (hERG) potassium channel (Q12809 whole entry, looked up): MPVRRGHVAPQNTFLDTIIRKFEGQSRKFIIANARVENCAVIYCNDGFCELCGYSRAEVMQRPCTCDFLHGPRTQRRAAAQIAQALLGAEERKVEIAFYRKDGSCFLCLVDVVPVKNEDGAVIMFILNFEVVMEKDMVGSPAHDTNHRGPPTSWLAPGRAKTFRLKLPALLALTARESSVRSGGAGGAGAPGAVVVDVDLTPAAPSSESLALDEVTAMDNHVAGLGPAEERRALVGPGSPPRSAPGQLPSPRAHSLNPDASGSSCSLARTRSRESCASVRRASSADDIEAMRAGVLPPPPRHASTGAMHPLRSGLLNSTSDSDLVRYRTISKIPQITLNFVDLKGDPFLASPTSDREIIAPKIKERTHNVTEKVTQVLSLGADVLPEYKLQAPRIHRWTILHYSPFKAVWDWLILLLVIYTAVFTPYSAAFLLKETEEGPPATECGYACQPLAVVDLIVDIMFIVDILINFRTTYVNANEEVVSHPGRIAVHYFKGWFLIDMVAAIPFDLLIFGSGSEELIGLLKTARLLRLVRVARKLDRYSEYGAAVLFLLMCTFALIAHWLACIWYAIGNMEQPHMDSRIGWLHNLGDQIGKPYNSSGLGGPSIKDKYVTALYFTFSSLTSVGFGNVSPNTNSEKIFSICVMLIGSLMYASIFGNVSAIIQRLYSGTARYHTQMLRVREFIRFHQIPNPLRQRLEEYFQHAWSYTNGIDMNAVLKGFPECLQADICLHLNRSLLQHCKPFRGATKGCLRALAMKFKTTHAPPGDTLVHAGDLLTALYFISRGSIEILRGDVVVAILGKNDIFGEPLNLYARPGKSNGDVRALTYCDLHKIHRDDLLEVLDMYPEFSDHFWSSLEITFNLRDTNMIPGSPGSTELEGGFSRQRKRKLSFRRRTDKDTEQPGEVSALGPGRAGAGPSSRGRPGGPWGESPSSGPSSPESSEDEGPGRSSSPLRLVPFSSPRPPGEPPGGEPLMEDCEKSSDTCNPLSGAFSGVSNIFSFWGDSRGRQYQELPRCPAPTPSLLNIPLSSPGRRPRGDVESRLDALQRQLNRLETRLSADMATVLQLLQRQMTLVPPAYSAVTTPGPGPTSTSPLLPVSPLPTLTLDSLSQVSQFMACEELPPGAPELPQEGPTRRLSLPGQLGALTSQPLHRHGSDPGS

**Q.** How did the “hERG current change (%, negative = inhibition) at 10uM” value turn out when `Cc1ccc(O/C=C2\OC(=O)c3ccccc32)cc1` was run?
**A.** 12.6%

**Q.** Which “hERG current change (%, negative = inhibition) at 10uM” value does the source give for `O=c1c2c(nc3nc(CCc4ccccc4)[nH]n13)CCC2` here?
**A.** -15.6%

**Q.** For `CCCN(CCC)CC(=O)Nc1cccc2c1OCO2.Cl`, which “hERG current change (%, negative = inhibition) at 10uM” value is on record?
**A.** -2.02%

**Q.** `COc1ccc(OCC(=O)NNC(=O)c2nn(C)c(=O)c3ccccc23)cc1` was tested. Which “hERG current change (%, negative = inhibition) at 10uM” value did it give?
**A.** -21.1%

**Q.** With `Cc1ccc(NC(=O)CCn2cc(C(F)(F)F)ccc2=O)cc1` as the molecule, how does the “hERG current change (%, negative = inhibition) at 10uM” value read?
**A.** 12.2%

**Q.** With `Cc1ncoc1C(=O)N1CCCC(C(=O)Nc2cccc(-c3ccc(F)cc3)c2)C1` (centres unmarked) as the molecule, how does the “hERG current change (%, negative = inhibition) at 10uM” value read?
**A.** -36.4%

**Q.** Which “hERG current change (%, negative = inhibition) at 10uM” value does the source give for `COCCN1CCN(C(=O)c2cc(COc3ccc(F)cc3F)on2)CC1` here?
**A.** -0.284%

**Q.** With `CCOc1ccccc1Nc1nc(-c2sc(NC(=O)c3ccccc3)nc2C)cs1` as the molecule, how does the “hERG current change (%, negative = inhibition) at 10uM” value read?
**A.** 6.04%

**Q.** For `O=C(c1cc([N+](=O)[O-])ccc1Cl)N1CCN(Cc2ccccc2)CC1`, which “hERG current change (%, negative = inhibition) at 10uM” value is on record?
**A.** 4.75%

**Q.** How did the “hERG current change (%, negative = inhibition) at 10uM” value turn out when `CC1CCN(S(=O)(=O)c2ccc(NC(=O)CN3C(=O)NC(C)(c4ccccc4)C3=O)cc2)CC1` (centres unmarked) was run?
**A.** -28.1%

**Q.** With `CNc1c([N+](=O)[O-])cnn1-c1ccccc1Cl` as the molecule, how does the “hERG current change (%, negative = inhibition) at 10uM” value read?
**A.** -12.8%

**Q.** How did the “hERG current change (%, negative = inhibition) at 10uM” value turn out when `CN(CC(=O)Nc1cccc(S(=O)(=O)NC2=NCCCCC2)c1)Cc1ccc(C(C)(C)C)cc1.O=C(O)C(=O)O` was run?
**A.** 6.28%

**Q.** With `COc1ccc(N2C(=O)CN=C2Nc2nc(C)cc(C)n2)cc1` as the molecule, how does the “hERG current change (%, negative = inhibition) at 10uM” value read?
**A.** 7.03%

**Q.** With `CCn1c2ccccc2c2cc(/C=N/n3c(-c4cc(C)[nH]n4)n[nH]c3=S)ccc21` as the molecule, how does the “hERG current change (%, negative = inhibition) at 10uM” value read?
**A.** 20.3%

**Q.** How did the “hERG current change (%, negative = inhibition) at 10uM” value turn out when `COCCCn1c(=O)c2sccc2n(Cc2cc(C(=O)OC)ccc2OC)c1=O` was run?
**A.** -17.2%

**Q.** Which “hERG current change (%, negative = inhibition) at 10uM” value does the source give for `CCCCC(=O)Nc1ccc(NC(=O)CCCC)nc1` here?
**A.** -7.7%

**Q.** `CC1CCCCN1C(=S)NCc1ccco1` (centres unmarked) was tested. Which “hERG current change (%, negative = inhibition) at 10uM” value did it give?
**A.** 11.5%

**Q.** How did the “hERG current change (%, negative = inhibition) at 10uM” value turn out when `CCCc1nnc(NC(=O)CCC(=O)NC2CCCCC2)s1` was run?
**A.** 20%

**Q.** `CN(Cc1cnccn1)Cc1nc(Cc2ccccc2F)no1` was tested. Which “hERG current change (%, negative = inhibition) at 10uM” value did it give?
**A.** -0.154%

**Q.** `COc1ccc(-n2c(=O)cc(N3CCOCC3)[nH]c2=O)cc1` was tested. Which “hERG current change (%, negative = inhibition) at 10uM” value did it give?
**A.** 9.71%

**Q.** For `Cl.Cn1cnc(CCN)c1`, which “hERG current change (%, negative = inhibition) at 10uM” value is on record?
**A.** -4.93%

**Q.** For `O=C(O)CCCC(=O)NNc1nc(-c2ccccc2)c2cc(Cl)ccc2n1`, which “hERG current change (%, negative = inhibition) at 10uM” value is on record?
**A.** 22.7%

**Q.** How did the “hERG current change (%, negative = inhibition) at 10uM” value turn out when `COC(=O)CCC(=O)c1ccn(S(=O)(=O)c2ccccc2)c1` was run?
**A.** 4.25%

**Q.** `COc1ccc(S(=O)(=O)N(CC(=O)N2CCN(C)CC2)c2ccccc2)cc1OC` was tested. Which “hERG current change (%, negative = inhibition) at 10uM” value did it give?
**A.** -1.06%

**Q.** For `O=C(NCCCc1ccccc1)c1cncc(Br)c1`, which “hERG current change (%, negative = inhibition) at 10uM” value is on record?
**A.** -12.6%

**Q.** For `NCCCC[C@@H]1NC(=O)[C@H](CCC(=O)O)NC(=O)c2cc([N+](=O)[O-])cc(I)c2SC[C@@H](C(=O)NCC(N)=O)NC1=O`, which “hERG current change (%, negative = inhibition) at 10uM” value is on record?
**A.** 17.9%

**Q.** For `CCC1CCCCN1CCCNC(=O)CN1C(=O)c2cccnc2Oc2ccc(C)cc21` (centres unmarked), which “hERG current change (%, negative = inhibition) at 10uM” value is on record?
**A.** -0.198%

**Q.** `COc1cc(NS(=O)(=O)c2ccc(NC(=O)CN3C(=O)c4ccccc4C3=O)cc2)ncn1` was tested. Which “hERG current change (%, negative = inhibition) at 10uM” value did it give?
**A.** 3.36%

**Q.** For `Cc1ccc(-n2nc(C)c3c(C)c(CCC(=O)O)c(C)nc32)cc1`, which “hERG current change (%, negative = inhibition) at 10uM” value is on record?
**A.** 12.6%

**Q.** For `CCOc1nc(S(=O)(=O)c2ccc(C)cc2)c(Cl)s1`, which “hERG current change (%, negative = inhibition) at 10uM” value is on record?
**A.** -10.4%

**Q.** With `O=C(CN1C(=O)NC2(CCc3ccccc32)C1=O)Nc1ccccc1C(F)(F)F` (centres unmarked) as the molecule, how does the “hERG current change (%, negative = inhibition) at 10uM” value read?
**A.** 6.12%

**Q.** `CS(=O)(=O)N1CCN(c2ccccc2NC(=O)c2ccc(-c3ccc(Br)cc3)o2)CC1` was tested. Which “hERG current change (%, negative = inhibition) at 10uM” value did it give?
**A.** -5.6%

**Q.** How did the “hERG current change (%, negative = inhibition) at 10uM” value turn out when `CN(C)S(=O)(=O)c1ccc(C(=O)NCC(=O)N/N=C/c2cccs2)cc1` was run?
**A.** 15.7%

**Q.** How did the “hERG current change (%, negative = inhibition) at 10uM” value turn out when `CCn1c(NC(=O)C2CCCCC2)nc2ccccc21` was run?
**A.** 8.36%

**Q.** `Br.NC1(N)OC(CN2C(=O)c3ccccc3C2=O)CS1` (centres unmarked) was tested. Which “hERG current change (%, negative = inhibition) at 10uM” value did it give?
**A.** -5.75%

**Q.** With `COc1cccc(C(=O)NCC2(c3ccc(OC)c(OC)c3)CCCC2)c1` as the molecule, how does the “hERG current change (%, negative = inhibition) at 10uM” value read?
**A.** -8.6%

**Q.** How did the “hERG current change (%, negative = inhibition) at 10uM” value turn out when `CN(C)c1ccc(CCc2ccc(N)cc2)cc1` was run?
**A.** 19.9%

**Q.** For `Cc1ccc(OCc2nnc(NC(=O)c3cccnc3)s2)cc1`, which “hERG current change (%, negative = inhibition) at 10uM” value is on record?
**A.** -13.6%

**Q.** With `COc1ccc(S(=O)(=O)NCC(=O)N(CC2CCCO2)C(C(=O)NC2CCCC2)C(C)C)cc1` (centres unmarked) as the molecule, how does the “hERG current change (%, negative = inhibition) at 10uM” value read?
**A.** -30.4%

**Q.** `CCCN(CCC)CCNC(=O)C1(O)c2ccccc2NC(=O)N1c1cccc(OC)c1` (centres unmarked) was tested. Which “hERG current change (%, negative = inhibition) at 10uM” value did it give?
**A.** 18.3%

**Q.** With `CCSc1nnc(CCNS(=O)(=O)c2ccc(C(C)=O)cc2)n1C` as the molecule, how does the “hERG current change (%, negative = inhibition) at 10uM” value read?
**A.** -1.22%

**Q.** For `CCOC(=O)Cn1cc(C(=O)c2ccco2)c2ccccc21`, which “hERG current change (%, negative = inhibition) at 10uM” value is on record?
**A.** -4.02%

**Q.** `CCCCN(C(=O)Cc1cccs1)c1nnc(-c2cccnc2)s1` was tested. Which “hERG current change (%, negative = inhibition) at 10uM” value did it give?
**A.** -6.04%

**Q.** Which “hERG current change (%, negative = inhibition) at 10uM” value does the source give for `CCCCn1c(N)c(N(CC(C)C)C(=O)CN2C(=O)NC3(CC(C)CC(C)(C)C3)C2=O)c(=O)[nH]c1=O` (centres unmarked) here?
**A.** -5.5%
